# This is one part of the list.
# B1: SP16663B-bot-321-25-321 (Bacteroides ovatus) (protein)
# chain: DDDDEVTMNSKFYLSTKVFPVDSYEASLSVILKDNSVVVNELQPNYRFVACATERLSKDVKITADSDDNLVSAYNKANDTEYNILPAENYSFTNKTVTIENGESVSGDSIKIELLNVGSLTTEGGYLLPVTISSIEGNNLDALSSNRGVVYLKIQNIHVNVESGQPAEGTLIADRSGWTVKVAPTTRGDAKNLIDGTNSDVARDGGAEYWLTVDIGKVQTLTGIRNKCYASSYSPTAVEVFTSSDGAKWKSIGAVTISKSGTQYIKFSKAVETRYLKYYVKQGPNTVSLTEFDLYAK
# Tests used:
# Experiment in all cases: glycan array binding signal (z-score within array); higher = stronger binding
# Conditions in all cases: glycan notation: IUPAC condensed, linker removed
# [1] = target: Fuc(a1-2)[Gal(a1-4)]Gal(b1-4)GlcNAc
# Method in brief: (§1)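 Glycan array binding is given as a within-array Z-score, which can be read as non-binding when negative. The arrays, 3228 of them, came from the Consortium for Functional Glycomics database and were retained only where the protein sequence was available. Z-scores were averaged across arrays of the same protein sequence at different concentrations or buffers and across linkers.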
# [2] = target: Fuc(a1-2)[GalNAc(a1-3)]Gal
# Method in brief: as §1
# [3] = target: Fuc(a1-2)[GalNAc(a1-3)]Gal(b1-3)GalNAc(a1-3)[Fuc(a1-2)]Gal(b1-4)GlcNAc
# Method in brief: as §1
# [4] = target: Fuc(a1-2)[GalNAc(a1-3)]Gal(b1-3)GalNAc(b1-3)Gal(a1-4)Gal(b1-4)Glc
# Method in brief: as §1
# [5] = target: Fuc(a1-2)[GalNAc(a1-3)]Gal(b1-3)GlcNAc
# Method in brief: as §1
# [6] = target: Fuc(a1-2)[GalNAc(a1-3)]Gal(b1-3)GlcNAc(b1-2)Man(a1-3)[Fuc(a1-2)[GalNAc(a1-3)]Gal(b1-3)GlcNAc(b1-2)Man(a1-6)]Man(b1-4)GlcNAc(b1-4)GlcNAc
# Method in brief: as §1
# [7] = target: Fuc(a1-2)[GalNAc(a1-3)]Gal(b1-3)GlcNAc(b1-2)Man(a1-3)[Fuc(a1-2)[GalNAc(a1-3)]Gal(b1-3)GlcNAc(b1-2)Man(a1-6)]Man(b1-4)GlcNAc(b1-4)[Fuc(a1-6)]GlcNAc
# Method in brief: as §1
# [8] = target: Fuc(a1-2)[GalNAc(a1-3)]Gal(b1-3)GlcNAc(b1-3)GalNAc
# Method in brief: as §1
# [9] = target: Fuc(a1-2)[GalNAc(a1-3)]Gal(b1-3)GlcNAc(b1-6)GalNAc
# Method in brief: as §1
# [10] = target: Fuc(a1-2)[GalNAc(a1-3)]Gal(b1-4)Glc
# Method in brief: as §1
# [11] = target: Fuc(a1-2)[GalNAc(a1-3)]Gal(b1-4)GlcNAc
# Method in brief: as §1
# [12] = target: Fuc(a1-2)[GalNAc(a1-3)]Gal(b1-4)GlcNAc(b1-2)Man
# Method in brief: as §1
# [13] = target: Fuc(a1-2)[GalNAc(a1-3)]Gal(b1-4)GlcNAc(b1-2)Man(a1-3)[Fuc(a1-2)[GalNAc(a1-3)]Gal(b1-4)GlcNAc(b1-2)Man(a1-6)]Man(b1-4)GlcNAc(b1-4)GlcNAc
# Method in brief: as §1
# [14] = target: Fuc(a1-2)[GalNAc(a1-3)]Gal(b1-4)GlcNAc(b1-2)Man(a1-3)[Fuc(a1-2)[GalNAc(a1-3)]Gal(b1-4)GlcNAc(b1-2)Man(a1-6)]Man(b1-4)GlcNAc(b1-4)[Fuc(a1-6)]GlcNAc
# Method in brief: as §1
# [15] = target: Fuc(a1-2)[GalNAc(a1-3)]Gal(b1-4)GlcNAc(b1-3)Gal(b1-4)GlcNAc
# Method in brief: as §1
# [16] = target: Fuc(a1-2)[GalNAc(a1-3)]Gal(b1-4)GlcNAc(b1-3)Gal(b1-4)GlcNAc(b1-3)Gal(b1-4)GlcNAc
# Method in brief: as §1
# [17] = target: Fuc(a1-2)[GalNAc(a1-3)]Gal(b1-4)GlcNAc(b1-3)GalNAc
# Method in brief: as §1
# [18] = target: Fuc(a1-2)[GalNAc(a1-3)]Gal(b1-4)GlcNAc(b1-3)[Fuc(a1-2)[GalNAc(a1-3)]Gal(b1-4)GlcNAc(b1-6)]GalNAc
# Method in brief: as §1
# [19] = target: Fuc(a1-2)[GalNAc(a1-3)]Gal(b1-4)GlcNAc(b1-6)GalNAc
# Method in brief: as §1
# [20] = target: Fuc(a1-2)[GalNAc(a1-3)]Gal(b1-4)[Fuc(a1-3)]GlcNAc
# Method in brief: as §1
# [21] = target: Fuc(a1-2)[GalNAc(a1-3)]Gal(b1-4)[Fuc(a1-3)]GlcNAc(b1-3)GalNAc
# Method in brief: as §1
# [22] = target: Fuc(a1-2)[GalNAc(a1-4)]Gal(b1-4)GlcNAc
# Method in brief: as §1
# [23] = target: Fuc(a1-2)[GalNAc(b1-3)]Gal
# Method in brief: as §1
# [24] = target: Fuc(a1-3)GlcNAc
# Method in brief: as §1
# [25] = target: Fuc(a1-3)[Gal(b1-4)]Glc6S
# Method in brief: as §1
# [26] = target: Fuc(a1-3)[Gal(b1-4)]GlcNAc
# Method in brief: as §1
# [27] = target: Fuc(a1-3)[Gal(b1-4)]GlcNAc(b1-2)Man
# Method in brief: as §1
# [28] = target: Fuc(a1-3)[Gal(b1-4)]GlcNAc(b1-2)Man(a1-3)[Fuc(a1-3)[Gal(b1-4)]GlcNAc(b1-2)Man(a1-6)]Man(b1-4)GlcNAc(b1-4)GlcNAc
# Method in brief: as §1
# [29] = target: Fuc(a1-3)[Gal(b1-4)]GlcNAc(b1-2)Man(a1-3)[Fuc(a1-3)[Gal(b1-4)]GlcNAc(b1-2)Man(a1-6)]Man(b1-4)GlcNAc(b1-4)[Fuc(a1-6)]GlcNAc
# Method in brief: as §1
# [30] = target: Fuc(a1-3)[Gal(b1-4)]GlcNAc(b1-3)Gal(b1-3)[Fuc(a1-4)]GlcNAc
# Method in brief: as §1
# [31] = target: Fuc(a1-3)[Gal(b1-4)]GlcNAc(b1-3)Gal(b1-4)[Fuc(a1-3)]GlcNAc
# Method in brief: as §1
# [32] = target: Fuc(a1-3)[Gal(b1-4)]GlcNAc(b1-3)Gal(b1-4)[Fuc(a1-3)]GlcNAc(b1-3)Gal(b1-4)[Fuc(a1-3)]GlcNAc
# Method in brief: as §1
# [33] = target: Fuc(a1-3)[Gal(b1-4)]GlcNAc(b1-3)GalNAc
# Method in brief: as §1
# [34] = target: Fuc(a1-3)[Gal(b1-4)]GlcNAc(b1-6)GalNAc
# Method in brief: as §1
# [35] = target: Fuc(a1-3)[Gal(b1-4)]GlcNAc(b1-6)[Gal(b1-3)GlcNAc(b1-3)]Gal(b1-4)Glc
# Method in brief: as §1
# [36] = target: Fuc(a1-3)[Gal(b1-4)]GlcNAc6S
# Method in brief: as §1
# [37] = target: Fuc(a1-3)[Gal3S(b1-4)]Glc
# Method in brief: as §1
# [38] = target: Fuc(a1-3)[Gal3S(b1-4)]GlcNAc
# Method in brief: as §1
binder,measurement,setting,value
B1,glycan array binding signal (z-score),[1],-0.238
same,glycan array binding signal (z-score),[2],0.321
same,glycan array binding signal (z-score),[3],-0.027
same,glycan array binding signal (z-score),[4],-0.296
same,glycan array binding signal (z-score),[5],0.071
same,glycan array binding signal (z-score),[6],-0.258
same,glycan array binding signal (z-score),[7],-0.366
same,glycan array binding signal (z-score),[8],0.547
same,glycan array binding signal (z-score),[9],-0.524
same,glycan array binding signal (z-score),[10],-0.114
same,glycan array binding signal (z-score),[11],-0.642
same,glycan array binding signal (z-score),[12],1.04
same,glycan array binding signal (z-score),[13],-0.25
same,glycan array binding signal (z-score),[14],-0.437
same,glycan array binding signal (z-score),[15],-0.377
same,glycan array binding signal (z-score),[16],0.462
same,glycan array binding signal (z-score),[17],-0.199
same,glycan array binding signal (z-score),[18],-0.651
same,glycan array binding signal (z-score),[19],-0.098
same,glycan array binding signal (z-score),[20],-0.437
same,glycan array binding signal (z-score),[21],0.604
same,glycan array binding signal (z-score),[22],-0.418
same,glycan array binding signal (z-score),[23],0.342
same,glycan array binding signal (z-score),[24],0.093
same,glycan array binding signal (z-score),[25],1.36
same,glycan array binding signal (z-score),[26],0.012
same,glycan array binding signal (z-score),[27],0.558
same,glycan array binding signal (z-score),[28],-0.239
same,glycan array binding signal (z-score),[29],-0.08
same,glycan array binding signal (z-score),[30],-0.444
same,glycan array binding signal (z-score),[31],-0.452
same,glycan array binding signal (z-score),[32],-0.369
same,glycan array binding signal (z-score),[33],-0.169
same,glycan array binding signal (z-score),[34],0.145
same,glycan array binding signal (z-score),[35],-0.297
same,glycan array binding signal (z-score),[36],0.854
same,glycan array binding signal (z-score),[37],-0.298
same,glycan array binding signal (z-score),[38],0.603
